Measurements reported in the supplement of paper PMC7826260.
Some of the results follow. Viral Rep nickase domains cut single-stranded DNA in vitro (3 µM enzyme, 1 h, 37 °C); shown is the middle of each 90-letter strand. Values are log2 of uncut reads against the no-enzyme pool; the lower, the more was cut; hits are not called. Shares of all reads are compared; uncut strands gain when others are lost, and binding without cutting may add a little.

What was measured:
Test in all cases: uncleaved DNA left, log2 of reads against the no-enzyme library (log2 ratio); higher = less cleavage (more negative = more Rep cleavage of the k-mer); sequences stand for … in CTCGTCCG…ACCGGAGA
[1] = tested on: T1, Rep nickase domain of Muscovy duck circovirus
T1 sequence (residues 1-111 of Rep, tag left off): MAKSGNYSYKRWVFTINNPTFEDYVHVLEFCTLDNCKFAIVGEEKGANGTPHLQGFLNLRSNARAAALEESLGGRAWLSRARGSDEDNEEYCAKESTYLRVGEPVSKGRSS
Description: (§1)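 A pool of 90-nt single-stranded DNAs with seven random bases just before the constant AC of the nick site (name = the seven bases) was cut by 3 µM recombinant His6-SUMO-tagged Rep nickase domain (300 nM DNA, 50 mM HEPES pH 8.0, 50 mM NaCl, 1 mM MnCl2, 1 h, 37 °C, three replicates). Uncut DNA was amplified and sequenced.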

[2] = tested on: T2, Rep nickase domain of banana bunchy top virus
T2 sequence (residues 1-94 of Rep, tag left off): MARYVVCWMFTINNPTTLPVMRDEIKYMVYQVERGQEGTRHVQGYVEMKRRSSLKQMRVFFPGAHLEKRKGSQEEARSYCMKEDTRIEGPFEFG
Description: as §1

[3] = tested on: T3, Rep nickase domain of cabbage leaf curl virus
T3 sequence (residues 1-116 of Rep, tag left off): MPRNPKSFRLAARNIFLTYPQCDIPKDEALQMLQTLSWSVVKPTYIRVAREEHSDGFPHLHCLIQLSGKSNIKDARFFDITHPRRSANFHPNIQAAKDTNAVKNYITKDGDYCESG
Description: as §1

[4] = tested on: T4, Rep nickase domain of chickpea chlorotic dwarf virus
T4 sequence (residues 1-124 of Rep, tag left off): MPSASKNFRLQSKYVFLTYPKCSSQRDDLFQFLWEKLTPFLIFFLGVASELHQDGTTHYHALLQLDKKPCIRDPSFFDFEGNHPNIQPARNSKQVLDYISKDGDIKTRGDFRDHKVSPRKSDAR
Description: as §1

[5] = tested on: T5, Rep nickase domain of faba bean necrotic yellows virus
T5 sequence (residues 1-98 of Rep, tag left off): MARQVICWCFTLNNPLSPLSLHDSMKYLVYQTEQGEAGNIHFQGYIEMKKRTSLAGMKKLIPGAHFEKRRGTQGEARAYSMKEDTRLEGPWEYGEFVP
Description: as §1

[6] = tested on: T6, Rep nickase domain of maize striate mosaic virus
T6 sequence (residues 1-117 of Rep, tag left off): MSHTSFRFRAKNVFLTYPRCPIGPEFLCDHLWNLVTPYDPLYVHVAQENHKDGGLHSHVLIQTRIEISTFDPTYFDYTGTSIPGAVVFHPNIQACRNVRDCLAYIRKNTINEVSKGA
Description: as §1

[7] = tested on: T7, Rep nickase domain of porcine circovirus 2
T7 sequence (residues 2-116 of Rep, tag left off): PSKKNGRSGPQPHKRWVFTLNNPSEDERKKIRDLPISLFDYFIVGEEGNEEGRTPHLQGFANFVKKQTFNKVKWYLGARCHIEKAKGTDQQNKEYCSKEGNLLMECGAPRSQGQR
Description: as §1

[8] = tested on: T8, Rep nickase domain of tomato golden mosaic virus
T8 sequence (residues 1-124 of Rep, tag left off): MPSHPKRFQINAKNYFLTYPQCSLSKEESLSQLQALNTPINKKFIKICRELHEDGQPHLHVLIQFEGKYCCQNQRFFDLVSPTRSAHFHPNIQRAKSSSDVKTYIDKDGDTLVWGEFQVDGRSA
Description: as §1

[9] = tested on: T9, Rep nickase domain of tomato yellow leaf curl virus
T9 sequence (residues 1-136 of Rep, tag left off): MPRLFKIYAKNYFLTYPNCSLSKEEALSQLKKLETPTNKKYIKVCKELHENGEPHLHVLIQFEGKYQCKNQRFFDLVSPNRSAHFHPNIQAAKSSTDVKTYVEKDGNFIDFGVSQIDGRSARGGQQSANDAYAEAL
Description: as §1

[10] = tested on: T10, Rep nickase domain of wheat dwarf virus
T10 sequence (residues 1-137 of Rep, tag left off): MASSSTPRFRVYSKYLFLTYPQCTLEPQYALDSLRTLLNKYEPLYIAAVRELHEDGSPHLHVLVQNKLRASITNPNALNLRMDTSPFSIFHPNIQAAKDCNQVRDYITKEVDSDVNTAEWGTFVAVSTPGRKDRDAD
Description: as §1

Sequence | uncleaved DNA left (log2) [1] | uncleaved DNA left (log2) [2] | uncleaved DNA left (log2) [3] | uncleaved DNA left (log2) [4] | uncleaved DNA left (log2) [5] | uncleaved DNA left (log2) [6] | uncleaved DNA left (log2) [7] | uncleaved DNA left (log2) [8] | uncleaved DNA left (log2) [9] | uncleaved DNA left (log2) [10]
AGCTGCC | -0.0101 | -0.015 | 0.244 | 0.766 | -0.0275 | 0.553 | 0.214 | -0.086 | -0.0983 | 0.0701
ATGCAAT | 0.177 | 0.0193 | 0.109 | 0.0528 | 0.133 | -0.224 | 0.0626 | 0.11 | 0.0228 | 0.137
GCTAAGG | 0.102 | 0.111 | 0.338 | 1.25 | 0.0832 | 1.05 | 0.206 | 0.211 | 0.0236 | 0.137
GCAGTCT | -0.188 | 0.0157 | -0.00882 | -1.29 | -0.197 | -0.251 | -0.0689 | -0.0524 | -0.0466 | -0.174
CGTGAGC | -0.0557 | -0.049 | 0.012 | 0.254 | -0.00264 | -0.298 | -0.0602 | -0.024 | -0.0975 | 0.00564
GGTTGTG | 0.13 | 0.0187 | -0.643 | 0.108 | -0.0435 | -0.525 | 0.176 | 0.00345 | 0.0679 | -0.0453
GACTGCG | 0.00936 | -0.103 | -0.288 | 1.04 | -0.0191 | 0.631 | 0.107 | -0.033 | -0.155 | -0.115
TATTATC | -1.36 | -0.411 | -0.138 | -0.795 | -0.0567 | -0.393 | -1.7 | 0.0318 | 0.132 | 0.0977
TATCCCT | -0.0753 | -0.0804 | -0.504 | -2.94 | -0.0421 | -0.18 | -1.51 | -0.181 | -0.0601 | -0.108
ATGCACA | -0.0333 | -0.0217 | -0.266 | -0.921 | 0.000899 | -0.76 | -0.0312 | -0.00478 | -0.0635 | -0.0015
GACGACC | -0.0287 | 0.0864 | 0.127 | 0.586 | -0.0418 | 0.331 | -0.0986 | -0.0393 | 0.0818 | 0.015
TTGTTCG | 0.0342 | -0.106 | -0.816 | 0.0441 | 0.0901 | -1.02 | 0.196 | -0.163 | -0.0576 | -0.173
AGCGTGA | 0.0421 | 0.0669 | 0.134 | 0.523 | 0.0416 | 1.09 | -0.0336 | 0.101 | 0.134 | 0.255
GCAGCAC | 0.0106 | 0.0359 | -0.0631 | -0.00405 | -0.0261 | -0.41 | 0.0647 | 0.0498 | 0.0775 | -0.034
CGATCGC | 0.217 | 0.052 | -0.188 | -0.201 | 0.0278 | -0.569 | 0.093 | 0.0013 | 0.0745 | 0.173
